# The supplement of paper PMC8728848
# The other results are listed elsewhere or left out.
# Tests used:
# Experiment in all cases: glycan array binding signal (z-score within array); higher = stronger binding
# Details in all cases: glycan notation: IUPAC condensed, linker removed
# [1] = biological target: Gal(a1-3)Gal(b1-4)GlcNAc(b1-2)Man
# In short: (§1)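 Glycan array data came from 3228 arrays in the Consortium for Functional Glycomics database, and only arrays with an available protein sequence were kept. Glycan names were put into IUPAC-condensed notation, and columns mapping to the same glycan were averaged. The binding signal is a within-array Z-score, averaged across arrays of one protein sequence run at different concentrations or buffers and across linkers. A negative Z-score can be read as non-binding.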
# [2] = biological target: Gal(a1-3)Gal(b1-4)GlcNAc(b1-2)Man(a1-3)[Gal(a1-3)Gal(b1-4)GlcNAc(b1-2)Man(a1-6)]Man(b1-4)GlcNAc(b1-4)GlcNAc
# In short: as §1
# [3] = biological target: Gal(a1-3)Gal(b1-4)GlcNAc(b1-3)GalNAc
# In short: as §1
# [4] = biological target: Gal(a1-3)Gal(b1-4)GlcNAc(b1-6)GalNAc
# In short: as §1
# [5] = biological target: Gal(a1-3)Gal(b1-4)[Fuc(a1-3)]GlcNAc
# In short: as §1
# [6] = biological target: Gal(a1-3)Gal(b1-4)[Fuc(a1-3)]GlcNAc(b1-2)Man(a1-3)[Gal(a1-3)Gal(b1-4)[Fuc(a1-3)]GlcNAc(b1-2)Man(a1-6)]Man(b1-4)GlcNAc(b1-4)GlcNAc
# In short: as §1
# Gal(a1-3)GalNAc = biological target: Gal(a1-3)GalNAc
# In short: as §1
# [7] = biological target: Gal(a1-3)[Gal(a1-4)]Gal(b1-4)GlcNAc
# In short: as §1
# [8] = biological target: Gal(a1-4)Gal(b1-3)GlcNAc(b1-2)Man(a1-3)[Gal(a1-4)Gal(b1-3)GlcNAc(b1-2)Man(a1-6)]Man(b1-4)GlcNAc(b1-4)GlcNAc
# In short: as §1
# Gal(a1-4)Gal(b1-4)Glc = biological target: Gal(a1-4)Gal(b1-4)Glc
# In short: as §1
# Gal(a1-4)Gal(b1-4)GlcNAc = biological target: Gal(a1-4)Gal(b1-4)GlcNAc
# In short: as §1
# [9] = biological target: Gal(a1-4)Gal(b1-4)GlcNAc(b1-2)Man(a1-3)[Gal(a1-4)Gal(b1-4)GlcNAc(b1-2)Man(a1-6)]Man(b1-4)GlcNAc(b1-4)GlcNAc
# In short: as §1
# [10] = biological target: Gal(a1-4)Gal(b1-4)GlcNAc(b1-3)Gal(b1-4)Glc
# In short: as §1
# Gal(a1-4)GlcNAc = biological target: Gal(a1-4)GlcNAc
# In short: as §1
# Gal(a1-6)Glc = biological target: Gal(a1-6)Glc
# In short: as §1
# Gal(b1-2)Gal = biological target: Gal(b1-2)Gal
# In short: as §1
# Gal(b1-3)Gal = biological target: Gal(b1-3)Gal
# In short: as §1
# Gal(b1-3)Gal(b1-4)GlcNAc = biological target: Gal(b1-3)Gal(b1-4)GlcNAc
# In short: as §1
# Gal(b1-3)GalNAc = biological target: Gal(b1-3)GalNAc
# In short: as §1
# [11] = biological target: Gal(b1-3)GalNAc(a1-3)[Fuc(a1-2)]Gal(b1-4)Glc
# In short: as §1
# [12] = biological target: Gal(b1-3)GalNAc(a1-3)[Fuc(a1-2)]Gal(b1-4)GlcNAc
# In short: as §1
# Gal(b1-3)GalNAc(b1-3)Gal = biological target: Gal(b1-3)GalNAc(b1-3)Gal
# In short: as §1
# [13] = biological target: Gal(b1-3)GalNAc(b1-3)Gal(a1-4)Gal(b1-4)Glc
# In short: as §1
# [14] = biological target: Gal(b1-3)GalNAc(b1-4)Gal(b1-4)Glc
# In short: as §1
# [15] = biological target: Gal(b1-3)GalNAc(b1-4)[Neu5Ac(a2-3)]Gal(b1-4)Glc
# In short: as §1
# Gal(b1-3)GlcNAc = biological target: Gal(b1-3)GlcNAc
# In short: as §1
# [16] = biological target: Gal(b1-3)GlcNAc(a1-3)Gal(b1-4)GlcNAc
# In short: as §1
# [17] = biological target: Gal(b1-3)GlcNAc(a1-6)Gal(b1-4)GlcNAc
# In short: as §1
# Gal(b1-3)GlcNAc(b1-2)Man = biological target: Gal(b1-3)GlcNAc(b1-2)Man
# In short: as §1
# [18] = biological target: Gal(b1-3)GlcNAc(b1-2)Man(a1-3)[Gal(b1-3)GlcNAc(b1-2)Man(a1-6)]Man(b1-4)GlcNAc(b1-4)GlcNAc
# In short: as §1
# [19] = biological target: Gal(b1-3)GlcNAc(b1-2)Man(a1-3)[Gal(b1-3)GlcNAc(b1-2)Man(a1-6)]Man(b1-4)GlcNAc(b1-4)[Fuc(a1-6)]GlcNAc
# In short: as §1
# [20] = biological target: Gal(b1-3)GlcNAc(b1-2)Man(a1-3)[GlcNAc(b1-4)][Gal(b1-3)GlcNAc(b1-2)Man(a1-6)]Man(b1-4)GlcNAc(b1-4)GlcNAc
# In short: as §1
# [21] = biological target: Gal(b1-3)GlcNAc(b1-2)[Gal(b1-3)GlcNAc(b1-6)]Man(a1-6)[Gal(b1-3)GlcNAc(b1-2)Man(a1-3)]Man(b1-4)GlcNAc(b1-4)GlcNAc
# In short: as §1
# [22] = biological target: Gal(b1-3)GlcNAc(b1-3)Gal(b1-3)GlcNAc
# In short: as §1
# [23] = biological target: Gal(b1-3)GlcNAc(b1-3)Gal(b1-4)Glc
# In short: as §1
# [24] = biological target: Gal(b1-3)GlcNAc(b1-3)Gal(b1-4)GlcNAc
# In short: as §1
# [25] = biological target: Gal(b1-3)GlcNAc(b1-3)Gal(b1-4)GlcNAc(b1-2)Man(a1-3)[Gal(b1-3)GlcNAc(b1-3)Gal(b1-4)GlcNAc(b1-2)Man(a1-6)]Man(b1-4)GlcNAc(b1-4)GlcNAc
# In short: as §1
# [26] = biological target: Gal(b1-3)GlcNAc(b1-3)Gal(b1-4)GlcNAc(b1-2)[Gal(b1-3)GlcNAc(b1-3)Gal(b1-4)GlcNAc(b1-6)]Man(a1-6)[Gal(b1-3)GlcNAc(b1-3)Gal(b1-4)GlcNAc(b1-2)Man(a1-3)]Man(b1-4)GlcNAc(b1-4)[Fuc(a1-6)]GlcNAc
# In short: as §1
# [27] = biological target: Gal(b1-3)GlcNAc(b1-3)Gal(b1-4)GlcNAc(b1-3)Gal(b1-4)GlcNAc(b1-2)[Gal(b1-3)GlcNAc(b1-3)Gal(b1-4)GlcNAc(b1-3)Gal(b1-4)GlcNAc(b1-6)]Man(a1-6)[Gal(b1-3)GlcNAc(b1-3)Gal(b1-4)GlcNAc(b1-3)Gal(b1-4)GlcNAc(b1-2)Man(a1-3)]Man(b1-4)GlcNAc(b1-4)[Fuc(a1-6)]GlcNAc
# In short: as §1
# [28] = biological target: Gal(b1-3)GlcNAc(b1-3)Gal(b1-4)GlcNAc(b1-6)[Gal(b1-3)GlcNAc(b1-3)]Gal(b1-4)Glc
# In short: as §1
# [29] = biological target: Gal(b1-3)GlcNAc(b1-3)Gal(b1-4)[Fuc(a1-3)]GlcNAc
# In short: as §1
# [30] = biological target: Gal(b1-3)GlcNAc(b1-3)Gal(b1-4)[Fuc(a1-3)]GlcNAc(b1-6)[Gal(b1-3)GlcNAc(b1-3)]Gal(b1-4)Glc
# In short: as §1
# [31] = biological target: Gal(b1-3)GlcNAc(b1-3)GalNAc
# In short: as §1
# [32] = biological target: Gal(b1-3)GlcNAc(b1-6)Gal(b1-4)GlcNAc
# In short: as §1
# [33] = biological target: Gal(b1-3)GlcNAc(b1-6)GalNAc
# In short: as §1
binder,measurement,setting,value
NKR-PIC (Mus musculus) (protein) GTGQKPSREKCCVFIQENLNKTTDCSVNLECPQDWLLHRDKCFHVSQVSNTWEEGQADCGRKGATLLLIQDQEELRFLLDSIKEKYNSFWIGLRFTLPDMNWKWINGTTFNSDVLKITGVTENGSCASILGDKVTPESCASDNRWICQKELNHETPSNDSGT,glycan array binding signal (z-score),[1],-0.324
same,glycan array binding signal (z-score),[2],-0.367
same,glycan array binding signal (z-score),[3],-0.361
same,glycan array binding signal (z-score),[4],-0.38
same,glycan array binding signal (z-score),[5],-0.246
same,glycan array binding signal (z-score),[6],-0.303
same,glycan array binding signal (z-score),Gal(a1-3)GalNAc,-0.227
same,glycan array binding signal (z-score),[7],0.85
same,glycan array binding signal (z-score),[8],-0.234
same,glycan array binding signal (z-score),Gal(a1-4)Gal(b1-4)Glc,-0.363
same,glycan array binding signal (z-score),Gal(a1-4)Gal(b1-4)GlcNAc,-0.159
same,glycan array binding signal (z-score),[9],-0.271
same,glycan array binding signal (z-score),[10],-0.309
same,glycan array binding signal (z-score),Gal(a1-4)GlcNAc,-0.328
same,glycan array binding signal (z-score),Gal(a1-6)Glc,-0.223
same,glycan array binding signal (z-score),Gal(b1-2)Gal,-0.335
same,glycan array binding signal (z-score),Gal(b1-3)Gal,-0.349
same,glycan array binding signal (z-score),Gal(b1-3)Gal(b1-4)GlcNAc,-0.34
same,glycan array binding signal (z-score),Gal(b1-3)GalNAc,-0.332
same,glycan array binding signal (z-score),[11],-0.353
same,glycan array binding signal (z-score),[12],-0.234
same,glycan array binding signal (z-score),Gal(b1-3)GalNAc(b1-3)Gal,-0.327
same,glycan array binding signal (z-score),[13],-0.362
same,glycan array binding signal (z-score),[14],-0.307
same,glycan array binding signal (z-score),[15],-0.405
same,glycan array binding signal (z-score),Gal(b1-3)GlcNAc,-0.324
same,glycan array binding signal (z-score),[16],-0.118
same,glycan array binding signal (z-score),[17],-0.372
same,glycan array binding signal (z-score),Gal(b1-3)GlcNAc(b1-2)Man,-0.284
same,glycan array binding signal (z-score),[18],-0.289
same,glycan array binding signal (z-score),[19],-0.294
same,glycan array binding signal (z-score),[20],0.794
same,glycan array binding signal (z-score),[21],-0.393
same,glycan array binding signal (z-score),[22],-0.293
same,glycan array binding signal (z-score),[23],-0.325
same,glycan array binding signal (z-score),[24],-0.294
same,glycan array binding signal (z-score),[25],-0.298
same,glycan array binding signal (z-score),[26],-0.025
same,glycan array binding signal (z-score),[27],-0.181
same,glycan array binding signal (z-score),[28],-0.376
same,glycan array binding signal (z-score),[29],-0.324
same,glycan array binding signal (z-score),[30],-0.302
same,glycan array binding signal (z-score),[31],-0.29
same,glycan array binding signal (z-score),[32],-0.33
same,glycan array binding signal (z-score),[33],-0.342
